# Laboratory results taken from PubChem BioAssay AID651820 (National Center for Advancing Translational Sciences (NCATS), 2012).
# Hit rate of the full screen: of about 340,000 compounds, about 12,000 (3.5%) were called active. The shares of active, inactive and inconclusive entries below differ from those in the screen. The call rests on the fitted dose curve; in most records, active means well fitted inhibition curve with a large enough effect; inconclusive means small, poorly fitted or top-dose-only effect, or another doubt; inactive means no such curve, though single readings can be large or run the other way. Potencies of inconclusive entries are left out as doubtful fits.
# Assay: qHTS Assay for Inhibitors of Hepatitis C Virus (HCV)
# Settings: Huh7.5.1 HCVcc-Cre (HCVcc is cell-culture hepatitis C virus) infection, luciferase reporter, 44 h; activity change, negative = inhibition: at 41.8 µM (top of the series) unless noted
# Outline: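 Compounds are dispensed onto cells plated 4 h earlier at 1,000 per well, with HCVcc-Cre virus (about 0.5 moi) added next. Following 44 h of culture, luminescent signal is measured for 15 sec after 15 min with substrate at room temperature.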
# On the % scale 0 is the no-effect control and ±100 the full control effect; potency means the concentration at half of the fitted maximal effect; tags describe the fitted curve by direction and shape.
SMILES,"activity change, negative = inhibition",Potency
COc1ccc(N2C3=C(C(=O)CC(C)(C)C3)C(c3ccccc3OC)C3=C2CC(C)(C)CC3=O)cc1,inactive: -17.6%,–
CCc1nc(NCc2ccc3c(c2)OCO3)c2oc3ccccc3c2n1,–,"inconclusive [inhibitor, partial curve]"
O=C1c2ccccc2C(Nc2cccc(C(F)(F)F)c2)N1Cc1ccco1 (stereo not drawn),–,"inconclusive [inhibitor, single point]"
COc1ccc(C2CCCN2C(=O)Nc2ccc(Cl)cc2)cc1OC (stereo not drawn),–,"inconclusive [inhibitor, partial curve]"
COc1ccc(NC(=O)c2nc[nH]c2C(=O)NCCCCCNC(=O)OC(C)(C)C)cc1,–,"inconclusive [inhibitor, full curve, poor fit]"
O=C(CCl)N1N=C(c2ccco2)CC1c1ccco1 (stereo not drawn),–,active: 11.2 µM
CS(=O)(=O)Cc1ccc(C(=O)N(CCc2ccccc2)Cc2ccccc2)cc1,inactive: -0.322%,–
CCN(CC)c1ccc(NC(=O)c2cccc(C)c2OC)c(C)c1,–,"inconclusive [inhibitor, single point]"
Cc1nnc(N(CCC#N)CCC#N)s1,inactive: 24%,–
CCOc1ccc(N(CC(=O)NCCSCc2ccccc2)S(=O)(=O)c2ccccc2)cc1,–,"inconclusive [inhibitor, partial curve, poor fit]"
CC(NC(=O)Cc1cccs1)C(c1cccs1)N1CCOCC1 (stereo not drawn),inactive: 9.35%,–
Cc1cc2ccccn2c1C(=O)c1nc(NCc2ccco2)ncc1Cl,–,"inconclusive [inhibitor, partial curve]"
CCOc1ccc(NC(=O)CSc2nc3ccsc3c(=O)n2CCC(=O)O)cc1,inactive: 16.6%,–
O=C(N1CCCC1)C12CCC3CC(CC(C3)C1)C2,inactive: 2.23%,–
CCc1c(C)nc2cc(-c3ccc(OC)c(OC)c3)nn2c1NCC1CC1,–,active: 11.2 µM
COc1ccc(C2=NN(C(=O)CSc3ncccn3)C(c3ccc(C)cc3)C2)cc1 (stereo not drawn),inactive: -7.62%,–
CCOc1cc(-c2nc(-c3ccc(C)nc3OCC)no2)cc(OCC)c1OCC,–,"inconclusive [inhibitor, partial curve]"
O=C(O)c1ccccc1C(=O)c1ccc(-c2ccccc2)cc1,inactive: 15.5%,–
COc1ccc(/C=N/OCC(=O)NCc2cccs2)c(OC)c1,–,"inconclusive [inhibitor, single point]"
CC(C)CNC(=O)Cn1c(=O)c2c(ncn2CC(C)C)n(Cc2ccccc2)c1=O,–,active: 11.2 µM
Fc1ccc(CNc2nc(-c3ccccc3)nc3ccccc23)cc1,–,"inconclusive [inhibitor, partial curve]"
O=C(CNc1ccccc1)N/N=C/c1ccc([N+](=O)[O-])o1,–,"inconclusive [inhibitor, single point]"
CCN(CC)C(=O)CN1CCN(c2ncccn2)CC1,inactive: -5.14%,–
O=C(O)CCCC(=O)N1N=C(c2ccccc2)CC1c1ccc2c(c1)OCO2 (stereo not drawn),inactive: 1.9%,–
Cc1onc(-c2ccc(Cl)cc2)c1-c1ccnc(SCC(=O)Nc2cc(Cl)cc(Cl)c2)n1,–,active: 15.8 µM

SMILES,"activity change, negative = inhibition",Potency
CCOC(OCC)c1cn(Cc2ccc(C(=O)c3ccccc3)cc2)nn1,–,"inconclusive [inhibitor, partial curve]"
COC(=O)c1cccc(Nc2nc(-c3cccnc3)nc3ccccc23)c1,–,active: 7.08 µM
Cc1ccc(S(=O)(=O)N2CCCCC2CCNC(=O)C(=O)NCc2cccnc2)cc1 (stereo not drawn),–,"inconclusive [inhibitor, full curve]"
COc1ccccc1Nc1nc(N)nc(CSc2nncn2C)n1,–,"inconclusive [inhibitor, single point]"
Cc1cccc(CN2C(=O)N/C(=C/c3ccc(C)s3)C2=O)c1,–,"inconclusive [inhibitor, single point]"
CCOC(=O)Cc1ncccc1C(=O)Nc1ccc(OC(F)(F)F)cc1,–,"inconclusive [inhibitor, single point]"
CCOC(=O)CNC(=O)c1cc(-c2ccc3c(c2)OCCO3)oc1C,–,"inconclusive [inhibitor, partial curve]"
CCN1C(=O)S/C(=C/c2ccc(Oc3ccc([N+](=O)[O-])cn3)c(OC)c2)C1=O,inactive: -18.6%,–
CSc1nc2c(c(=O)n1Cc1ccccc1)SC(C)C2 (stereo not drawn),inactive: -1.17%,–
CC(=O)c1ccc(OCc2cc(C(=O)N(C)CCOc3ccc(C)cc3)no2)cc1,–,active: 12.6 µM
CCOc1ccc(NC(=O)Cn2cc(C(=O)c3ccco3)c3ccccc32)cc1,inactive: -3.92%,–
COc1ccc(S(=O)(=O)N(CCc2ccccc2)CC(=O)NCCCO)cc1,–,"inconclusive [inhibitor, partial curve, poor fit]"
CCOC(=O)C1=CN(C)C=C(C(=O)OCC)C1c1ccsc1,inactive: -3.42%,–
CC(C(=O)N1CCOCC1)(c1ccccc1)c1ccccc1,–,"inconclusive [inhibitor, single point]"
COc1ccc(NC(=O)CSc2nc(NS(=O)(=O)c3ccccc3)cc(=O)[nH]2)cc1,–,inactive
CC(C)(CO)NCc1cccc(OCc2ccc(Cl)cc2)c1,–,"inconclusive [inhibitor, single point]"
O=C(c1ccco1)N1CCN(C(=O)c2ccc(COc3ccc(Cl)cc3Cl)o2)CC1,–,"inconclusive [inhibitor, single point]"
COc1ccc(NS(=O)(=O)c2ccc3oc(SC)nc3c2)cc1,–,"inconclusive [inhibitor, partial curve]"
COc1ccc(OC)c(CCNC(=O)C2CCN(c3nnc(-n4cccc4)s3)CC2)c1,–,"inconclusive [inhibitor, full curve]"
c1ccc(Cc2nnc(-c3ccccc3)o2)cc1,inactive: 7.89%,–
Clc1ccc(-c2nc(N3CCCCC3)nc3ccccc23)cc1,inactive: -6.17%,–
Cc1cc(C)cc(N2C(=O)NC(=O)/C(=C\c3cccn3-c3ccccc3)C2=O)c1,–,"inconclusive [inhibitor, single point]"
O=C(NNC(=O)c1ccc(-c2ccccc2)cc1)Nc1ccccc1,inactive: 8.01%,–
COc1ccc(NC(=O)CN(C)C(=O)CSC(c2ccccc2)c2ccccc2)cc1,–,active: 12.6 µM
CCOC(=O)[C@H]1[C@H]2COc3ccccc3[C@@H]2N2C(=O)c3cc(C)ccc3NC(=O)[C@@]12C,inactive: 5.4%,–

SMILES,"activity change, negative = inhibition",Potency
CCCOC(=O)c1c(N)sc(C(=O)OCC)c1C,inactive: -29.6%,–
O=[N+]([O-])c1cnn(-c2nc(-c3ccccc3)cc(C(F)(F)F)n2)c1,–,"inconclusive [inhibitor, partial curve, poor fit]"
O=C(NCc1csc(-c2cccs2)n1)Nc1ccc(F)cc1F,inactive: 2.15%,–
OC(CC#CCN1CCCCC1)(c1ccccc1)c1ccccc1,inactive: -26.9%,–
CCc1ccc(OCC(=O)N/N=C(\C)c2ccc(O)cc2O)cc1,–,active: 11.2 µM
COc1ccc(NS(=O)(=O)c2ccc(N3CCCCC3)c(NC(=O)C(C)NC(N)=O)c2)cc1 (stereo not drawn),–,"inconclusive [inhibitor, partial curve]"
O=C(COC(=O)c1ccc([N+](=O)[O-])o1)NC12CC3CC(CC(C3)C1)C2,inactive: 7.78%,–
c1ccc(-c2csc3ncnc(N4CCN(Cc5ccc6c(c5)OCO6)CC4)c23)cc1,–,"inconclusive [inhibitor, single point]"
O=C(CCN1C(=O)/C(=C/c2ccccc2F)SC1=S)NCCc1ccc(O)cc1,–,"inconclusive [inhibitor, single point]"
COc1ccc(-n2c(SCC(=O)Nc3ccc(C(N)=O)cc3)nc3c([nH]c4ccccc43)c2=O)cc1OC,–,active: 11.2 µM
Cc1ccc(C(=O)O)cc1N1C(=O)c2cccc3c([N+](=O)[O-])ccc(c23)C1=O,–,"inconclusive [inhibitor, single point]"
COc1cc2c(cc1NC(=O)COC(=O)/C=C/c1ccccc1)oc1ccccc12,–,"inconclusive [inhibitor, full curve]"
COc1cc(OC)c(/C=C2\C(=O)Nc3ccccc32)c(OC)c1,–,"inconclusive [inhibitor, single point]"
CC(=O)N1CCN=C1SCc1ccccc1F,inactive: -0.201%,–
CC(=O)Nc1cccc(NC(=O)CSc2nnc(Cc3cccn3C)n2-c2ccc(F)cc2)c1,–,"inconclusive [inhibitor, single point]"
CC(=O)[C@H]1CC[C@H]2[C@@H]3C=CC4=CC(=O)CC[C@@]4(C)[C@@H]3CC[C@]12C,–,active: 0.562 µM
CC(C)Cn1c(N)c(C(=O)COC(=O)CCc2nc3ccccc3s2)c(=O)n(C)c1=O,–,"inconclusive [inhibitor, single point]"
CCC(=O)NCCc1cc2ccc(C)cc2[nH]c1=O,–,"inconclusive [inhibitor, single point]"
CCCn1c2ccccc2c2cnn(CC(=O)NCCCN3C(C)CCCC3C)c(=O)c21 (stereo not drawn),–,"inconclusive [inhibitor, single point]"
O=C(Nc1ccccn1)c1ccc(Br)c(S(=O)(=O)N2CCCC2)c1,–,"inconclusive [inhibitor, single point]"
C/C(=C/c1oc2ccc(O)cc2c1[N+](=O)[O-])N(C)C,–,"inconclusive [inhibitor, single point]"
CCC(=O)N1CCc2cc(S(=O)(=O)NCCCN3CCN(Cc4ccccc4)CC3)ccc21,–,"inconclusive [inhibitor, single point]"
COc1ccccc1C(=O)Nc1ccc2c(c1)CCCN2C(=O)c1cccs1,–,"inconclusive [inhibitor, partial curve]"
